{"source": "the supplement of paper PMC11417369", "note": "The other results are listed elsewhere or left out.", "data": [{"test_system": "PfHDP1 homeodomain (GST-tagged)", "test": "gcPBM binding intensity (ln(normalized median fluorescence intensity)); higher = stronger DNA binding", "method_in_brief": "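Probes on an Agilent 4 × 180k array were primer-extended, double-stranded and 36 bp long, taken from intergenic genomic regions, with negative controls added. GST-tagged P. falciparum DNA-binding domains from E. coli, about 25 μg on average, were applied to the array for 1 h in 1× PBS containing 1% milk, 0.2 mg/ml BSA, 0.5% salmon testes DNA and 0.03% Triton X-100. Binding intensity, obtained after Alexa488 anti-GST antibody detection and a 488 nm scan, is the highest Masliner-normalised natural-log median intensity across replicate spots of either probe orientation.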", "values": [{"sequence": "AAAACAAACGGACACACACACATATATATATATATA [CACACA_site5924]", "gcPBM binding intensity (ln)": 9.42}, {"sequence": "ACATGTAAATTTACATGTACATGTAACACTTAATAT [XGTACX_site4575]", "gcPBM binding intensity (ln)": 6.68}, {"sequence": "TATATTAAACAATATACACACATTAATGTATCCATA [CACACA_site5523]", "gcPBM binding intensity (ln)": 6.75}, {"sequence": "TTATATATATATATATGTACACATATATAACATGAT [XGTACX_site6643]", "gcPBM binding intensity (ln)": 7.16}, {"sequence": "TGTAATATTTTTCATGCATGCTCTTCTTTTACATAA [TGCATGCA_site144]", "gcPBM binding intensity (ln)": 7.2}, {"sequence": "ATAATTTATATTACTTGTACATATTTATATGAACGA [XGTACX_site3610]", "gcPBM binding intensity (ln)": 6.14}, {"sequence": "ATATTATACATTTATACACACATAAAAAGACAAAAA [CACACA_site3565]", "gcPBM binding intensity (ln)": 6.9}, {"sequence": "AAACAATTTGGGTGTACACATGATACGTTCGATGAG [CACACA_site5160]", "gcPBM binding intensity (ln)": 7.01}, {"sequence": "ATAACCTAATAATACACACACATGAATATAAATAAC [CACACA_site6584]", "gcPBM binding intensity (ln)": 6.92}, {"sequence": "ATATATATTTTATACGCATGTAATTATTATGTGGTC [TGCATGCA_site45]", "gcPBM binding intensity (ln)": 6.73}, {"sequence": "AGGTGTCATAGATGCACACAAAAGTAACACGCACCT [CACACA_site4418]", "gcPBM binding intensity (ln)": 8.92}, {"sequence": "AAAAGGTTATCAAAATGTACGAAATGTTACAAAAAT [XGTACX_site6215]", "gcPBM binding intensity (ln)": 6.38}, {"sequence": "AAATGTTAAAAAGAGAAAAACAATAAAAAACAATTA [CACACA_negctrl_site1044]", "gcPBM binding intensity (ln)": 6.53}, {"sequence": "AAGGAGAAATATTGCACACGTGCAAAATGGTATGAG [CACACA_site259]", "gcPBM binding intensity (ln)": 10.8}, {"sequence": "TATTCTTTTATGAATACACACATATACGAAAATATT [CACACA_site6585]", "gcPBM binding intensity (ln)": 6.61}, {"sequence": "AAAATTAAAAATAACACACACATATTTATATTTATA [CACACA_site7329]", "gcPBM binding intensity (ln)": 6.24}, {"sequence": "AGTTATATGTACTACACACGTACACAAAATAAGATA [CACACA_site3719]", "gcPBM binding intensity (ln)": 7.14}, {"sequence": "CTTAATTTTTTTTAATGTACATACATATAAACCTTT [XGTACX_site2233]", "gcPBM binding intensity (ln)": 6.84}, {"sequence": "TATTTTTATTGGTGAATACACACGTATATATATATT [CACACA_site2401]", "gcPBM binding intensity (ln)": 6.76}, {"sequence": "TGTTTATGTTTACATGTGCGCATTACAGAAAAAAAA [GTGCAC_site9669]", "gcPBM binding intensity (ln)": 7.47}, {"sequence": "ACATGTATACTTTTTACGAAAAAAAAAAAAAAAAAA [CACACA_negctrl_site1638]", "gcPBM binding intensity (ln)": 6.22}, {"sequence": "TTTTTATTTAAAAGTAGTACAAGGGTTATTATTAAC [XGTACX_site1555]", "gcPBM binding intensity (ln)": 6.45}, {"sequence": "CACGCGCACGAACACACACACACACGCATATAAATA [CACACA_site7103]", "gcPBM binding intensity (ln)": 7.4}, {"sequence": "TACAGATAAATATACATACATATATATATATATATA [XGTACX_negctrl_site182]", "gcPBM binding intensity (ln)": 9.26}, {"sequence": "ATATTATTTTATTTTTGTACAGATATCTTTAAAAAA [XGTACX_site3734]", "gcPBM binding intensity (ln)": 6.62}, {"sequence": "TTTTTTTTTTTTTTTGCACACTTAAATTTGGTGGGG [CACACA_site2344]", "gcPBM binding intensity (ln)": 9.02}, {"sequence": "AATACATACATACATACATGCATATATATATATATA [TGCATGCA_site462]", "gcPBM binding intensity (ln)": 9.29}, {"sequence": "TTATTAAAAATGGTATGTACGCACATAATATATATA [XGTACX_site3230]", "gcPBM binding intensity (ln)": 7.33}, {"sequence": "AACATCATCTCTCCACAACAACAAAAAAAAAAATAC [CACACA_negctrl_site311]", "gcPBM binding intensity (ln)": 6.61}, {"sequence": "ATATTTTATACTTGCACACAAAATATATTAGAATGT [CACACA_site1985]", "gcPBM binding intensity (ln)": 9.41}, {"sequence": "GAAATCTAATTTATTACACACATTTGAAAAAAATTC [CACACA_site6640]", "gcPBM binding intensity (ln)": 6.14}, {"sequence": "AATTTTTTGAATAATTGTACATATTTGGTTAAATAT [XGTACX_site3612]", "gcPBM binding intensity (ln)": 6.21}, {"sequence": "TTACTAAGAAGGATTTATTTTATAAAAATATTTATT [XGTACX_negctrl_site549]", "gcPBM binding intensity (ln)": 5.9}, {"sequence": "TTATATTTTTTTGAGTGTACTTTTTGTGTAAAATTC [XGTACX_site2155]", "gcPBM binding intensity (ln)": 6.5}, {"sequence": "ACCCATTTTTGTTGTTCTATATATTCGTGAATCATT [CACACA_negctrl_site614]", "gcPBM binding intensity (ln)": 7.23}, {"sequence": "TATATGATATAATATACACACATACATATATATATA [CACACA_site8066]", "gcPBM binding intensity (ln)": 8.9}, {"sequence": "GAACAACAACAAAAAAAAAAAAAAAAAAAAAAAAAA [CACACA_negctrl_site199]", "gcPBM binding intensity (ln)": 6.14}, {"sequence": "TAAATAAATATATGTACACACACAAATATATACATA [CACACA_site8577]", "gcPBM binding intensity (ln)": 6.47}, {"sequence": "ATTTTATGAAATGTTGCACACAAAAAACAACATGTT [CACACA_site8408]", "gcPBM binding intensity (ln)": 9.69}, {"sequence": "ATATTTAATACAAATACACACACAAATATATACATA [CACACA_site9248]", "gcPBM binding intensity (ln)": 6.84}, {"sequence": "ATGGGAAAAACATTCCGTACATACATACACATATAT [XGTACX_site8263]", "gcPBM binding intensity (ln)": 6.38}, {"sequence": "CTGAATTTTTATAACTGTACATATTTGATATAAAAA [XGTACX_site183]", "gcPBM binding intensity (ln)": 6.07}, {"sequence": "ATATTGCTTATTTGATGTACGAATACACTAGTATTA [XGTACX_site4536]", "gcPBM binding intensity (ln)": 6.35}, {"sequence": "TATCTGTATATGTGTACACATATTCTTAACTCACGC [CACACA_site4255]", "gcPBM binding intensity (ln)": 7.08}, {"sequence": "ATACTAAATGAACACACACACATATAGATTTATAAC [CACACA_site6200]", "gcPBM binding intensity (ln)": 6.87}, {"sequence": "AAAATTATATGTAATTGTACGGAATTATATACGCAA [XGTACX_site2048]", "gcPBM binding intensity (ln)": 6.41}, {"sequence": "TTTTTTAAAAATATTATCATCGTAACAAGAAATCGA [CACACA_negctrl_site1111]", "gcPBM binding intensity (ln)": 6.49}, {"sequence": "TCCTGTGGTTATATAACACACATTATTGCTTATAAG [CACACA_site6823]", "gcPBM binding intensity (ln)": 6.5}, {"sequence": "AATACATACATATATACATGCATACATATAAATATA [TGCATGCA_site674]", "gcPBM binding intensity (ln)": 6.53}, {"sequence": "GAACAAAAAAAAAATTGTACACAATTTTTTAAAATT [XGTACX_site4455]", "gcPBM binding intensity (ln)": 6.01}, {"sequence": "ATGATTTATTATTATACACACAAAAAAAAAAAAGGA [CACACA_site264]", "gcPBM binding intensity (ln)": 6.73}, {"sequence": "AAACAAAAAAAATAAGCACACATATATATATATATA [CACACA_site8173]", "gcPBM binding intensity (ln)": 9.4}, {"sequence": "GCTTATAAGATATGCACACACAACACTTACAAAAAA [CACACA_site817]", "gcPBM binding intensity (ln)": 9.27}, {"sequence": "TATATATATATACATACATATAAAGTTACATAAACA [CACACA_negctrl_site432]", "gcPBM binding intensity (ln)": 8.9}, {"sequence": "TAGATTTTTTTACATTGTACATATTTTTTCTTATAG [XGTACX_site293]", "gcPBM binding intensity (ln)": 6.63}, {"sequence": "GAACAAACAAAGAAAGAACACACATACACAATATAC [CACACA_site8918]", "gcPBM binding intensity (ln)": 7.16}]}]}
